Test results as given in the supplement of paper PMC3334620.
Over roughly 33,000 sequences, “E-score (-0.5 to 0.5)” has its median near -0.013; the highest 2% begin near 0.3. This is one part of the list.

target: T1, Msn1 (UniProt P22148); test: PBM E-score (8-mer binding enrichment) (E-score (-0.5 to 0.5)); higher = stronger / more preferred TF binding; most listed sequences are background and not binding sites; conditions: protein concentration: 200 nM; construct: GST-full length
T1 sequence: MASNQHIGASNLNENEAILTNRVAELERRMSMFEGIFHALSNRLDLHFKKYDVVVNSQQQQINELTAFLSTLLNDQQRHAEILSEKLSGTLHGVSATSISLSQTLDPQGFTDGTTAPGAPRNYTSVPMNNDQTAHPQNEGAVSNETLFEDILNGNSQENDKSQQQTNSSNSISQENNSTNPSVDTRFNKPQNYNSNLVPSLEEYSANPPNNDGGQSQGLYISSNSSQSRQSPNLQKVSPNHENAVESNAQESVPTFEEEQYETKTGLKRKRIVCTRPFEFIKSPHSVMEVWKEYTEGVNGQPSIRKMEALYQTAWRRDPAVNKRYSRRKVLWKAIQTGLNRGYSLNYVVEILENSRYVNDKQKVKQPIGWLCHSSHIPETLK
Summary of the method: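 The E-score, a modified Wilcoxon-Mann-Whitney statistic, was computed by the Universal PBM Analysis Suite for every ungapped eight-base word pooled with its reverse complement. Scans behind it were normalised with masliner after bound GST-tagged yeast transcription factors were detected with fluorescent anti-GST. The proteins, at about 100-200 nM, had been applied to universal all-10-mer Agilent arrays made double-stranded by primer extension.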

Question: With GGGGAAAA as the sequence, how does the “PBM E-score” value read?
Answer: Its value is 0.00854.

Question: Which “PBM E-score” value does the source give for ATCCTAGC here?
Answer: Its value is -0.118.

Question: CGGCTGCA was tested. Which “PBM E-score” value did it give?
Answer: The value was -0.055.

Question: With GTTCTACA as the sequence, how does the “PBM E-score” value read?
Answer: The value was -0.231.

Question: Which “PBM E-score” value does the source give for CATAGGAC here?
Answer: The value was 0.234.

Question: For CAGAACGA, which “PBM E-score” value is on record?
Answer: Its value is 0.11.

Question: Which “PBM E-score” value does the source give for AGATCGCC here?
Answer: The value was -0.123.

Question: How did the “PBM E-score” value turn out when CTTTATTC was run?
Answer: Its value is 0.105.

Question: With CCCTGGCC as the sequence, how does the “PBM E-score” value read?
Answer: Its value is -0.388.

Question: With GCCACCGC as the sequence, how does the “PBM E-score” value read?
Answer: The value was -0.116.

Question: Which “PBM E-score” value does the source give for ATCGGTTA here?
Answer: The value was 0.0545.

Question: How did the “PBM E-score” value turn out when GAAGAAAA was run?
Answer: The value was 0.105.

Question: For ACCCGTGC, which “PBM E-score” value is on record?
Answer: Its value is -0.169.

Question: For CATAGTCA, which “PBM E-score” value is on record?
Answer: Its value is 0.0365.

Question: CAAGATTG was tested. Which “PBM E-score” value did it give?
Answer: Its value is 0.131.

Question: CCTGCAGG was tested. Which “PBM E-score” value did it give?
Answer: Its value is -0.12.

Question: For CACCCCTC, which “PBM E-score” value is on record?
Answer: Its value is -0.305.

Question: How did the “PBM E-score” value turn out when AGAAGAGG was run?
Answer: The value was -0.147.

Question: How did the “PBM E-score” value turn out when ATAACTAC was run?
Answer: The value was 0.208.

Question: With CGACCTAA as the sequence, how does the “PBM E-score” value read?
Answer: Its value is 0.0905.

Question: For CGAGTCTC, which “PBM E-score” value is on record?
Answer: Its value is -0.0316.

Question: With GTTTATAA as the sequence, how does the “PBM E-score” value read?
Answer: The value was 0.153.

Question: AATTTAGC was tested. Which “PBM E-score” value did it give?
Answer: The value was 0.0199.

Question: How did the “PBM E-score” value turn out when AAAGTTCT was run?
Answer: The value was 0.0772.

Question: How did the “PBM E-score” value turn out when ACGGCGAT was run?
Answer: The value was 0.0278.

Question: For ACGCGACG, which “PBM E-score” value is on record?
Answer: The value was 0.0188.

Question: For CACTACAA, which “PBM E-score” value is on record?
Answer: The value was 0.0813.

Question: CTCCCCGA was tested. Which “PBM E-score” value did it give?
Answer: Its value is 0.0019.

Question: How did the “PBM E-score” value turn out when AAACTTCA was run?
Answer: The value was 0.12.

Question: ACATAAGT was tested. Which “PBM E-score” value did it give?
Answer: The value was 0.165.

Question: For GATTAAGC, which “PBM E-score” value is on record?
Answer: Its value is -0.0418.

Question: With CAAATCTG as the sequence, how does the “PBM E-score” value read?
Answer: Its value is 0.097.

Question: GCACTCCC was tested. Which “PBM E-score” value did it give?
Answer: The value was -0.189.

Question: How did the “PBM E-score” value turn out when ATCGAGAT was run?
Answer: Its value is 0.0248.

Question: For TCGGTCAA, which “PBM E-score” value is on record?
Answer: Its value is 0.0641.

Question: CGTCGCTA was tested. Which “PBM E-score” value did it give?
Answer: Its value is -0.0936.

Question: Which “PBM E-score” value does the source give for CGCCTTGA here?
Answer: Its value is -0.214.

Question: AAAGACCG was tested. Which “PBM E-score” value did it give?
Answer: Its value is 0.0194.

Question: CCGACCTA was tested. Which “PBM E-score” value did it give?
Answer: The value was -0.0873.

Question: Which “PBM E-score” value does the source give for GAAACTGA here?
Answer: Its value is -0.0421.

Question: Which “PBM E-score” value does the source give for ATAATTCA here?
Answer: The value was 0.119.

Question: Which “PBM E-score” value does the source give for GAAGGCGC here?
Answer: The value was -0.199.

Question: With GAGCCTAA as the sequence, how does the “PBM E-score” value read?
Answer: The value was -0.107.

Question: For CGTTAACG, which “PBM E-score” value is on record?
Answer: The value was -0.0345.

Question: With TGCCGTAA as the sequence, how does the “PBM E-score” value read?
Answer: The value was 0.0671.

Question: CAAGAACC was tested. Which “PBM E-score” value did it give?
Answer: The value was 0.117.

Question: How did the “PBM E-score” value turn out when CCGTTCCA was run?
Answer: Its value is -0.0998.

Question: TCTGACAA was tested. Which “PBM E-score” value did it give?
Answer: The value was 0.198.

Question: Which “PBM E-score” value does the source give for CGCAACTA here?
Answer: The value was -0.0727.

Question: For AGCTATTA, which “PBM E-score” value is on record?
Answer: Its value is 0.0313.

Question: For CACTATGG, which “PBM E-score” value is on record?
Answer: Its value is -0.172.

Question: How did the “PBM E-score” value turn out when CAATCCAG was run?
Answer: Its value is 0.0879.

Question: CTTTACGC was tested. Which “PBM E-score” value did it give?
Answer: Its value is 0.0302.

Question: How did the “PBM E-score” value turn out when CAAAGCGG was run?
Answer: The value was 0.0733.

Question: Which “PBM E-score” value does the source give for AGCGTCAT here?
Answer: Its value is -0.0807.

Question: Which “PBM E-score” value does the source give for AGAGTGTG here?
Answer: Its value is -0.204.

Question: How did the “PBM E-score” value turn out when ACAGTTAG was run?
Answer: The value was 0.0892.

Question: For GACTCGTA, which “PBM E-score” value is on record?
Answer: The value was -0.159.

Question: Which “PBM E-score” value does the source give for ACACATAG here?
Answer: The value was 0.0311.

Question: GAAAAAGC was tested. Which “PBM E-score” value did it give?
Answer: Its value is 0.0165.

Question: CAACTGAC was tested. Which “PBM E-score” value did it give?
Answer: Its value is -0.0694.

Question: How did the “PBM E-score” value turn out when ACGAAAAG was run?
Answer: Its value is 0.106.

Question: With GCTCCACA as the sequence, how does the “PBM E-score” value read?
Answer: Its value is -0.208.

Question: For GCAATAGA, which “PBM E-score” value is on record?
Answer: The value was -0.181.

Question: How did the “PBM E-score” value turn out when AACACGTT was run?
Answer: The value was -0.139.

Question: AAGAAATA was tested. Which “PBM E-score” value did it give?
Answer: The value was 0.0701.

Question: Which “PBM E-score” value does the source give for ATGCTATA here?
Answer: The value was -0.08.

Question: CTCCTTTA was tested. Which “PBM E-score” value did it give?
Answer: The value was 0.00412.

Question: Which “PBM E-score” value does the source give for ATCACAAC here?
Answer: Its value is 0.0882.

Question: Which “PBM E-score” value does the source give for GTACATAC here?
Answer: The value was 0.217.

Question: Which “PBM E-score” value does the source give for AGCGCCGA here?
Answer: Its value is 0.102.

Question: How did the “PBM E-score” value turn out when AGAGCCTA was run?
Answer: Its value is -0.138.

Question: TCTGCAAA was tested. Which “PBM E-score” value did it give?
Answer: Its value is -0.129.

Question: With ATTGCATC as the sequence, how does the “PBM E-score” value read?
Answer: Its value is -0.148.

Question: With ATGAGTAA as the sequence, how does the “PBM E-score” value read?
Answer: The value was 0.0231.

Question: With AGAAAGTG as the sequence, how does the “PBM E-score” value read?
Answer: Its value is -0.0278.

Question: CTTTTCCC was tested. Which “PBM E-score” value did it give?
Answer: The value was -0.0566.

Question: Which “PBM E-score” value does the source give for AAAGTAAA here?
Answer: The value was -0.00172.

Question: For AAGAAGAT, which “PBM E-score” value is on record?
Answer: Its value is -0.0233.

Question: How did the “PBM E-score” value turn out when CGGTGAAA was run?
Answer: The value was 0.202.

Question: Which “PBM E-score” value does the source give for ATACAATG here?
Answer: Its value is 0.153.

Question: For GGGGCACC, which “PBM E-score” value is on record?
Answer: The value was -0.345.

Question: Which “PBM E-score” value does the source give for AACATGGC here?
Answer: Its value is -0.0873.

Question: Which “PBM E-score” value does the source give for AATGGGAA here?
Answer: The value was -0.049.

Question: For CCTTGCTA, which “PBM E-score” value is on record?
Answer: Its value is 0.0249.

Question: For GAGCCCCC, which “PBM E-score” value is on record?
Answer: Its value is -0.427.
